Consider six cell lines from the supplement of paper PMC4967469.

What all share (experiment): Viability of human cancer cell lines after 72 h of drug (GDSC screen)
Compound in test [1]: C=CCNC1=C2C[C@@H](C)C[C@H](OC)[C@H](O)[C@@H](C)/C=C(\C)[C@H](OC(N)=O)[C@@H](OC)/C=C\C=C(/C)C(=O)NC(=CC1=O)C2=O [17-AAG]
The note with it: top dose 1 µM. The procedure:
(§1)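 Human cancer cell lines in 384-well plates, medium with 10% serum, drug for 72 h over a 256-fold dose range (nine 2-fold or five 4-fold steps up to the top dose). Adherent lines were fixed and stained with the nucleic acid dye Syto60, suspension lines read with resazurin; signal relative to control wells, capped at 0 and 100%. One two-parameter sigmoid per drug and line, fitted in a mixed model over all curves with the slope shared within a line.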

Compound in test [2]: CCc1cc(-c2n[nH]c(C)c2-c2ccc3c(c2)OCCO3)c(O)cc1O [CCT018159]
The note with it: top dose 10 µM; top dose inferred. Here is the method: as §1

Compound in test [3]: CN(C)Cc1cccc(N=C(c2ccccc2)c2c(O)[nH]c3cc(C(=O)N(C)C)ccc23)c1 [BIX02189]
The note with it: top dose 20 µM; top dose inferred. The procedure: as §1

Compound in test [4]: COC(=O)CNC(=O)C(=O)OC [Dimethyloxalylglycine]
The settings on record: top dose 4000 µM; top dose inferred. Here is the method:
as §1

Compound in test [5]: COc1cccc2c1C(=O)c1c(O)c3c(c(O)c1C2=O)C[C@@](O)(C(=O)CO)C[C@@H]3O[C@H]1C[C@H](N)[C@H](O)[C@H](C)O1 [Doxorubicin]
The settings on record: top dose 1.024 µM. Here is the method:
as §1

Compound in test [6]: COc1cccc2cc(-c3nc([C@H]4CC[C@H](C(=O)O)CC4)n4ncnc(N)c34)[nH]c12 [OSI-027]
The note with it: top dose 20 µM. The procedure:
as §1

Compound in test [7]: CS(=O)(=O)c1ccc(C(=O)Nc2ccc(Cl)c(-c3ccccn3)c2)c(Cl)c1 [Vismodegib]
The settings on record: top dose 10 µM; top dose inferred. The procedure:
as §1

Compound in test [8]: Cc1cnc(Nc2ccc(F)cc2Cl)nc1-c1c[nH]c(C(=O)N[C@H](CO)c2cccc(Cl)c2)c1 [VX-11e]
The note with it: top dose 5.12 µM; top dose inferred. The procedure:
as §1

Compound in test [9]: Cc1cnc(Nc2ccc(OCCN3CCCC3)cc2)nc1Nc1cccc(S(=O)(=O)NC(C)(C)C)c1 [TG101348]
The note with it: top dose 10.24 µM. Here is the method:
as §1

Compound in test [10]: O=C(c1ccc(C(=O)N2CCC(N3CCCC3)CC2)c(Nc2ccccc2)c1)N1CCC(N2CCCC2)CC1 [UNC1215]
The note with it: top dose 1 µM; top dose inferred. Here is the method:
as §1

A lower IC50 marks a more sensitive line; a fit beyond the top or the lowest dose is shown as a bound at that dose. AUC, from the same fit, is the share of area under the viability curve across the 256-fold dose range; values near 1 show little effect. For part of these data: The top dose, if marked as inferred, was calculated from the reported fits.

Turning to T-T (oesophagus, adherent), the AUC in test [1] was found to be 0.505; in test [2], 0.924; in test [3], 0.966; in [4], 0.537; in test [5] it was 0.631; in [6] it was 0.86. In addition, the AUC in [7] is 0.979; in [8], 0.931; in [9], 0.851; in test [10], 0.986. For the same cell line, the IC50 (in general, the concentration at which inhibition is half-maximal) in test [1] is 0.0644 µM; in test [2] it was > 10 µM; in [3] it was > 20 µM; in test [4], 315 µM; in test [5] it was 0.147 µM; in [6] it was 16.6 µM. In addition, the IC50 in test [7] was > 10 µM; in [8] it was > 5.12 µM; in test [9], 7.81 µM; in [10], > 1 µM.
On to 647-V (bladder, adherent), for which the AUC was 0.972 in test [1]; 0.953 in test [2]; 0.986 in test [3]; 0.342 in test [4]; 0.39 in test [5]; 0.456 in test [6]. In addition, the AUC in [7] was 0.987; in [8], 0.98; in test [9] it was 0.951; in test [10], 0.986. In addition, the IC50 in test [1] was > 1 µM; in test [2] it was > 10 µM; in test [3], > 20 µM; in test [4], 90.9 µM; in test [5] it was 0.0319 µM; in [6], 0.95 µM. In addition, the IC50 was > 10 µM in test [7], > 5.12 µM in test [8], > 10.2 µM in [9] and > 1 µM in test [10].
As for A4-Fuk (B-cell lymphoma, suspension), the AUC was found to be 0.984 in test [1]; 0.939 in [2]; 0.851 in test [3]; 0.249 in test [4]; 0.644 in test [5]; 0.881 in test [6]. For the same cell line, the AUC in test [7] is 0.95; in test [8], 0.88; in [9], 0.891; in test [10], 0.978. Also, the IC50 is > 1 µM in test [1]; > 10 µM in [2]; 16.4 µM in test [3]; 45.7 µM in test [4]; 0.164 µM in test [5]; > 20 µM in test [6]. Moreover, the IC50 in test [7] is > 10 µM; in test [8], > 5.12 µM; in test [9], > 10.2 µM; in [10], > 1 µM.
On to OPM-2 (myeloma, suspension), for which the AUC in test [1] came out at 0.992; in test [2], 0.933; in [3], 0.727; in [4], 0.199; in [5], 0.835; in [6], 0.625. In addition, the AUC in test [7] turned out to be 0.994; in test [8], 0.962; in [9] it was 0.747; in test [10] it was 0.993. Further, the IC50 was > 1 µM in test [1]; > 10 µM in [2]; 4.75 µM in test [3]; 40.5 µM in [4]; 0.505 µM in test [5]; 2.58 µM in test [6]. Further, the IC50 is > 10 µM in test [7], > 5.12 µM in test [8], 2.76 µM in test [9] and > 1 µM in test [10].
For “KARPAS-620 (haematopoietic neoplasm, suspension)”, the AUC came to 0.96 in test [1]; 0.947 in test [2]; 0.832 in test [3]; 0.492 in [4]; 0.772 in test [5]; 0.191 in test [6]. The AUC in [7] was 0.991; in [8], 0.966; in test [9], 0.486; in test [10], 0.988. Besides, the IC50 in test [1] is > 1 µM; in test [2], > 10 µM; in [3], 10.3 µM; in test [4], 238 µM; in [5], 0.34 µM; in test [6] it was 0.18 µM. Further, the IC50 in test [7] is > 10 µM; in [8] it was > 5.12 µM; in test [9], 0.588 µM; in test [10], > 1 µM.
As for “IST-SL1 (small cell lung carcinoma, semi-adherent)”, the AUC in [1] was determined as 0.911; in [2] it was 0.921; in [3], 0.874; in [4] it was 0.589; in [5], 0.804; in test [6] it was 0.301. The AUC in test [7] came out at 0.987; in [8], 0.971; in [9], 0.709; in test [10], 0.972. Moreover, the 50% inhibitory concentration (IC50) was > 1 µM in [1]; > 10 µM in [2]; > 20 µM in test [3]; 442 µM in [4]; 0.53 µM in test [5]; 0.338 µM in [6]. In addition, the IC50 in [7] was > 10 µM; in test [8] it was > 5.12 µM; in test [9] it was 2.53 µM; in test [10], > 1 µM.
